Test results reported in patent publication US20220333079A1, “GENETICALLY MODIFIED NK CELL LINE TRANSDUCED WITH GENE ENCODING NOVEL CHIMERIC ANTIGEN RECEPTOR AND USE THEREOF” (SLBIGEN INC., priority 2019, published 2022).

Assays:
Test in all cases: FACS binding to cells
Conditions in all cases: 1 μg protein
[1] = system: normal human bone marrow cells
Method: (§1) The acute myeloid leukemia cell lines EOL-1, MOLM-13, and REH cell lines known to express FLT3 protein on the cell surface, as well as the FLT3-negative cell lines K562, Daudi and normal human bone marrow cells (2.5×05 cells) were washed twice with FACS buffer. Then, 4 μl of Human TruStain FcX (Fc Receptor Blocking Solution) (cat #422302, Biolegend, USA) diluted in 100 μl of FACS buffer was treated to the cells and reacted at room temperature for 10 minutes. After the reaction was completed, 1 μg of the prepared anti-FLT3-scFv-Fc protein was added to the FACS tube and reacted at 4° C. for 20 minutes. After washing the unbound antibodies with FACS buffer, 3 μl of anti-human IgG-PE (cat #: 409304, Biolegend, USA) secondary antibody was diluted in 100 μl of FACS buffer was treated and incubated at 4° C. for 20 minutes. After the reaction, the unbound antibodies was washed twice with FACS buffer, and then FACS analysis was performed. In the case of a commercialized anti-human FLT3 (CD135)-PE antibody (cat #313308, Biolegend, USA), after treatment with Fc receptor blocking solution, 3 μl was treated, reacted at 4° C. for 20 minutes, and finally washed, followed by FACS analysis was performed.

FLT3+ EOL-1 cell line = system: FLT3+ EOL-1 cell line; parameters: species or system human
Method: as §1

FLT3+ REH cell line = system: FLT3+ REH cell line; parameters: species or system human
Method: as §1

FLT3+ MOLM-13 cell line = system: FLT3+ MOLM-13 cell line; parameters: species or system human
Method: as §1

FLT3- K562 cells = system: FLT3- K562 cells; parameters: species or system human
Method: as §1

FLT3- Daudi cells = system: FLT3- Daudi cells; parameters: species or system human
Method: as §1

B1: anti-FLT3 scFv-hyFc: recombinant fusion of anti-FLT3 scFv (SEQ ID NO:13) and modified Fc region (SEQ ID NO:1) (protein)
chain: EVQLVQSGAEVKKPGSSVKVSCKASGGTFSSYAISWVRQAPGQGLEWMGGIIPIFGTANYAQKFQGRVTITADKSTSTAYMELSSLRSEDTAVYYCATFALFGFREQAFDIWGQGTTVTVSSGGGGSGGGGSGGGGS[about 100 residues not given here]FGPGTKVDIKAAAEPKSPDKTHTCPPCPSHTQPLGVFLFPPKPKDQLMISRTPEVTCVVVDVSQEDPEVQFNWYVDGVEVHNAKTKPREEQFNSTYRVVSVLTVLHQDWLNGKEYKCKVSNKGLPSSIEKTISKAKGQPREPQVYTLPPSQEEMTKNQVSLTCLVKGFYPSDIAVEWESNGQPENNYKTTPPVLDSDGSFFLYSRLTVDKSRWQEGNVFSCSVLHEALHNHYTQKSLSLSLGK
For B1, which binding to cells [1] is on record?
Its binding to cells is “did not bind”.

What about the binding to cells (FLT3+ EOL-1 cell line) of the same molecule?
Its binding to cells is “strong binding”.

What about the binding to cells (FLT3+ REH cell line) of the same molecule?
The binding to cells was “strong binding”.

What about the binding to cells (FLT3+ MOLM-13 cell line) of the same molecule?
Its binding to cells is “strong binding”.

And the binding to cells (FLT3- K562 cells)?
The binding to cells was “did not bind”.

And the binding to cells (FLT3- Daudi cells)?
Its binding to cells is “did not bind”.
